Data taken from US20100203647A1, “Chemical Reporters of Protein Acylation” (THE ROCKEFELLER UNIVERSITY, priority 2008, published 2010).
Where two headings read alike, the source gives them in different places. One block for each molecule: values may come before it.

What was measured:
[1] = system: acetylated proteins such as histones; assay: Metabolic labeling of acetylated proteins with very short chain alkynyl-chemical reporters, in-gel fluorescence; format: cell-based, human
[2] = system: M. smegmatis; assay: Labeling of acylated proteins in bacterial cells with alkynyl-chemical reporters; format: cell-based
[3] = system: Jurkat T cells; assay: Metabolic labeling of Jurkat T cells with alkynyl-acetate analogs, CuAAC with az-Rho, in-gel fluorescence scanning
[4] = target: T1, p300 (Homo sapiens, UniProt Q09472); assay: In vitro acylation of histone H3 protein by p300 and mapping of modification sites (spectral counts, nano-HPLC/MS/MS); format: biochemical
T1 construct: made in house; host or cells: SF9 insect cells, baculovirus
T1 sequence (Q09472 whole entry): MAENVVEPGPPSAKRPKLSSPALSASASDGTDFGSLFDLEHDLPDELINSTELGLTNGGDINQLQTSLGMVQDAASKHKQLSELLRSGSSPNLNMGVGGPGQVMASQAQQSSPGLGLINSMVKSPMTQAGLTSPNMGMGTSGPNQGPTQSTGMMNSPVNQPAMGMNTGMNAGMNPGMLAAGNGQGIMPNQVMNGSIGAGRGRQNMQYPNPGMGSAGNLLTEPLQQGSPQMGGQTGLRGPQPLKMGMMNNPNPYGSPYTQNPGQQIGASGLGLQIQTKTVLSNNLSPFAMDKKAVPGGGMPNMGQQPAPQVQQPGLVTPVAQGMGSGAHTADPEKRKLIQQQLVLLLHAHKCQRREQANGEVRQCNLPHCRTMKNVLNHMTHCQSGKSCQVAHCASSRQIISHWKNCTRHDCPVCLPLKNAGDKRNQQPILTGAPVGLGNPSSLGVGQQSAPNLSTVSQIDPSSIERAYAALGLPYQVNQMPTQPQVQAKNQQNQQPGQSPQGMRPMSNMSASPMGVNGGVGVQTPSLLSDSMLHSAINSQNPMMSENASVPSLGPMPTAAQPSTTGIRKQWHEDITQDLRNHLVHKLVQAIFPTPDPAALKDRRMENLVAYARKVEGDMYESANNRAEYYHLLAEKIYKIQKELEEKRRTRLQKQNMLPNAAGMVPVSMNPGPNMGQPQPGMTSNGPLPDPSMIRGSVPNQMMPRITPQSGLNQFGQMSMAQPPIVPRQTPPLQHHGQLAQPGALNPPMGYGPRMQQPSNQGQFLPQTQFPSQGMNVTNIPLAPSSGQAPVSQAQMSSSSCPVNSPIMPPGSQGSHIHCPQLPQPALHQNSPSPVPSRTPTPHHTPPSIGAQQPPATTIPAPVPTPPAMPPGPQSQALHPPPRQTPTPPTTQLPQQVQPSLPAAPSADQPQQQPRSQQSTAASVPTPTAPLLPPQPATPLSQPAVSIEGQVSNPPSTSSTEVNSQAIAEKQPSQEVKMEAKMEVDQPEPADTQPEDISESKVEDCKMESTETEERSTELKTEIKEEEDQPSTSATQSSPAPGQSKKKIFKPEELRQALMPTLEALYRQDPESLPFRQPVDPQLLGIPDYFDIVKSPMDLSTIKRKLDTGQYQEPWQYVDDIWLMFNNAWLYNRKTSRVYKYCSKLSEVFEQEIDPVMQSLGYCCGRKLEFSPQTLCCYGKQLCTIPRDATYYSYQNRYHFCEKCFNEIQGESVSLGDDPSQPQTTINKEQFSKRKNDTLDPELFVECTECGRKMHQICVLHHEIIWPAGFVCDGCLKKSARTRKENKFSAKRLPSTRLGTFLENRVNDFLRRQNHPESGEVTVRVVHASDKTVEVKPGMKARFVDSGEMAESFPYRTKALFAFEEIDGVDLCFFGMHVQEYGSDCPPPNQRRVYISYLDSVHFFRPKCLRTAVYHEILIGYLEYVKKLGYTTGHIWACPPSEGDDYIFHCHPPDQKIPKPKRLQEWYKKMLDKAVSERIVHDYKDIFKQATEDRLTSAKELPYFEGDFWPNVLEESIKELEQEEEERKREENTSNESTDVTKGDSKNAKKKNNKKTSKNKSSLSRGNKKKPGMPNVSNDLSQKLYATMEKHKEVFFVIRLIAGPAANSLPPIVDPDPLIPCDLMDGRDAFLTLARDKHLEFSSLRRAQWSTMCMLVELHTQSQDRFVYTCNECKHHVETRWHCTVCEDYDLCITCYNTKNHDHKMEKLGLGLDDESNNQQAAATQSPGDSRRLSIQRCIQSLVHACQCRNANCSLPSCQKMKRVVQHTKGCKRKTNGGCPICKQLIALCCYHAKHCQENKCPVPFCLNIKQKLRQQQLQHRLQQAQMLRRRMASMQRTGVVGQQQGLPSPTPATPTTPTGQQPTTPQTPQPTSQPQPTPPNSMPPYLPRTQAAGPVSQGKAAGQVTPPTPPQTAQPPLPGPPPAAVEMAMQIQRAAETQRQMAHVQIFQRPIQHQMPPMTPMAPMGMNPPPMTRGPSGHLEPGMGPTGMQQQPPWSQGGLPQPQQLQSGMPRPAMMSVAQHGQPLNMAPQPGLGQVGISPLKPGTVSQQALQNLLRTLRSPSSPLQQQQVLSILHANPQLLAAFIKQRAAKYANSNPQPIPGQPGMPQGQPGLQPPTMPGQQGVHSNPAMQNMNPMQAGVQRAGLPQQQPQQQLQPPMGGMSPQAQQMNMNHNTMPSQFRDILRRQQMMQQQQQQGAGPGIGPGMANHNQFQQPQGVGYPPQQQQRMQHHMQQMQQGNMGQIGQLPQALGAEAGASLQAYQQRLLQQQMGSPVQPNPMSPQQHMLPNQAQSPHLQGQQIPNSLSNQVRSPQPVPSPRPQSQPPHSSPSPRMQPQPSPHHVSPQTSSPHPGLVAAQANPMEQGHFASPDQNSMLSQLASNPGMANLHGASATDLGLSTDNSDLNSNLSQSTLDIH
Procedure: Following the in vitro reaction, proteins were separated on 15% SDS-PAGE and stained with coomassie brilliant blue R-250 staining solution (Bio-Rad). The gel slices containing histone H3 products were excised from each lane, washed with 50 mM ammonium bicarbonate (ABC) twice, destained with 50 mM ABC/CH3CN (50/50) twice and dehydrated with CH3CN. After drying the gel slices in a SpeedVac, gel slices were rehydrated with trypsin solution (2 μg of trypsin for each vial/gel slice) and incubated in 37° C. water bath for 18 hrs. Trypsin-digested peptides in solution were collected, dried in SpeedVac, resuspended in H2O (with 0.1% TFA) and submitted samples to nano-HPLC/MS/MS analysis (Thermo LTQ-Orbitrap in the Proteomic Resource Center at Rockefeller University).
LC-MS analysis was performed with a Dionex 3000 nano-HPLC coupled to an LTQ-Orbitrap ion trap mass spectrometer (ThermoFisher). Peptides were pressure loaded onto a home made 75 μm diameter, 15 cm C18 reverse phase column and separated with a gradient running from 95% buffer A (HPLC water with 0.1% formic acid) and 5% buffer B (HPLC grade acetonitrile with 0.1% formic acid) to 55% B over 30 min, next ramping to 95% B over 10 min and holding 95% B for 10 min. One full MS scan (300-2000 MW) was followed by 3 data dependent scans of the nth most intense ions with dynamic exclusion enabled. The spray voltage was set to 1.94 kV and the flow rate through the column was set to 0.25 μL/min.
Raw tandem mass spectra were searched against the human IPI protein database version 3.56 using SEQUEST search engine (Thermo Scientific). Cysteine carbamido-methylation was searched as fixed modification, while methionine/tryptophan oxidation, asparagines/glutamine deamindation, lysine/serine/threonine/cysteine acetylation, N-terminal acetylation/3-butynylation/4-pentynylation/5-hexynylation and lysine 3-butynylation/4-pentynylation/5-hexynylation were searched as variable modifications. Peptide tolerance was set as 10.0 ppm, fragment ion tolerance was set as 1.0 AMU and trypsin was set as the digestion enzyme. The resulting searching files were then analyzed and visualized by Scaffold 2 proteome software.
Each identified protein must contain at least 2 unique peptides that are exclusively assigned to this protein with a minimum protein identification probability of 99%. Each peptide spectrum must meet several selection thresholds including >95% for peptide identification probability, >1.0 for SEQUEST XCorr score, and ±6 ppm for actual minus calculated peptide mass.

[5] = system: metabolic incorporation of chemical reporters; assay: Effect of inhibitors/additives on metabolic incorporation of alkynyl-chemical reporters; format: cell-based
[6] = system: Jurkat cells; assay: Metabolic labeling with inhibitors; details: CHX 10 μM, HMA 1 mM, 2-BP 50 μM, 30 minutes pre-incubation
[7] = target: T1, p300; assay: MALDI-TOF analysis of p300-catalyzed acylation of histone H3 peptide in vitro; format: biochemical; details: 20 μM analog, MS analysis
Procedure: Cells were lysed in lysis buffer (20 mM Tris, pH 7.5, 500 mM NaCl, 4 mM MgCl2, 0.4 mM EDTA, 20% glycerol, 2 mM DTT, and supplemented with protease inhibitors). Clarified cell lysates were diluted to 300 mM NaCl, and NP-40 was added to 0.1% final concentration. Flag M2 agarose resin (Sigma) was added to the lysate and incubated for 4 hours at 4° C. […] Protein concentration and purity were estimated by comparison to BSA standards on SDS gels stained with Gelcode Blue stain (Pierce).

[8] = target: T1, p300; assay: In-gel fluorescent detection of p300-catalyzed in vitro acylation of histone H3; format: biochemical; details: CuAAC with az-Rho, in-gel fluorescence
Text: CuAAC reactions were allowed to proceed at room temperature for 1 hr, and proteins were subsequently separated on 15% SDS-PAGE. The gels were soaked in destaining solution (40% MeOH, 10% AcOH, 50% H2O) for 1-2 hrs to remove the non-covalently bound az-Rho dye. After washing with dd H2O, the gel was subjected to in-gel fluorescence scanning.

[9] = Absorbance and fluorescence studies of clickable CyFur dyes; format: physicochemical
Procedure: Absorbance and fluorescence studies. Absorption spectra and fluorescence data were collected on SpectraMax M2 multi-detection reader (Molecular Devices). The spectra in solution were obtained at 25° C. using a quartz cuvette with a path length of 1 cm. Fluorescence quantum yields (ΦF) of CyFur dyes were determined against cresyl violet (ΦF=0.54 in methanol).

[10] = system: newly synthesized proteins; details: cited from earlier work
[11] = lysine-modified peptide, H3 + acyl-CoA + p300
[12] = lysine-modified peptide, H3 + acyl-CoA, without p300

Compound: C#CCCC(=O)O [alk-3, pent-4-ynoic acid]
labeling of acetylated proteins [1]: found to label acetylated proteins such as histones
labeling of proteins in bacterial cells [2]: labeled distinct proteins

Compound: O=C(CCCCCCC(=O)Nc1ccccc1)NO [SAHA, suberoylanilide hydroxamic acid, reference compound]
acetylation level of histones (Western blot, anti-acetyl-Lys antibody) ([3]; 10 μM SAHA, 8 hrs): elevated acetylation level of histones
effect on protein labeling with alkynyl-acetate analogs ([3]; Jurkat T cells, 100 μM CHX, 10 μM SAHA, 8 hrs): slightly reduced

Spectral Counts of Peptide EIAQDFK (73-79) (SEQ ID NO: 7) ([4]; H3 + acyl-CoA + p300): 22
Spectral Counts of Peptide KLPFQR (64-69) (SEQ ID NO: 6) ([4]; H3 + acyl-CoA + p300): 1
Spectral Counts of Peptide KSAPATGGVK (27-36) (SEQ ID NO: 2) ([4]; H3 + acyl-CoA + p300): 6
Spectral Counts of Peptide VTIMPK (117-122) (SEQ ID NO: 9) ([4]; H3 + acyl-CoA + p300): 1
Spectral Counts of Peptide YRPGTVALR (41-49) (SEQ ID NO: 4) ([4]; H3 + acyl-CoA + p300): 2
Spectral Counts of Peptide EIAQDFK (73-79) (SEQ ID NO: 7) ([4]; H3 + acyl-CoA, without p300): 23
Spectral Counts of Peptide KSAPATGGVK (27-36) (SEQ ID NO: 2) ([4]; H3 + acyl-CoA, without p300): 21
Spectral Counts of Peptide SAPATGGVK (28-36) SEQ ID NO: 3 ([4]; H3 + acyl-CoA, without p300): 2
Spectral Counts of Peptide VTIMPK (117-122) (SEQ ID NO: 9) ([4]; H3 + acyl-CoA, without p300): 10
Spectral Counts of Peptide YRPGTVALR (41-49) (SEQ ID NO: 4) ([4]; H3 + acyl-CoA, without p300): 3
Spectral Counts of Peptide KQLATK (18-23, K18) (SEQ ID NO: 13) [4, 11]: 2
Spectral Counts of Peptide KQLATKAAR (18-26, K18, K23) (SEQ ID NO: 15) [4, 11]: 138
Spectral Counts of Peptide KSAPATGGVK (27-36, K27) (SEQ ID NO: 17) [4, 11]: 34
Spectral Counts of Peptide KSAPATGGVK (27-36, K27, K36) (SEQ ID NO: 18) [4, 11]: 4
Spectral Counts of Peptide KSTGGKAPR (9-17, K9, K14) (SEQ ID NO: 11) [4, 11]: 60
Spectral Counts of Peptide KSTGGKAPR (9-17, K14) (SEQ ID NO: 10) [4, 11]: 8
Spectral Counts of Peptide QLATKAAR (19-26, K23) (SEQ ID NO: 16) [4, 11]: 1
Spectral Counts of Peptide RVTIMPKDIQLAR (116-128, K122) (SEQ ID NO: 22) [4, 11]: 2
Spectral Counts of Peptide RYQKSTELLIR (53-63, K56) (SEQ ID NO: 21) [4, 11]: 5
Spectral Counts of Peptide KQLATKAAR (18-26, K18, K23) (SEQ ID NO: 15) [4, 12]: 4
Spectral Counts of Peptide KSAPATGGVK (27-36, K27) (SEQ ID NO: 17) [4, 12]: 12
Spectral Counts of Peptide KSTGGKAPR (9-17, K9, K14) (SEQ ID NO: 11) [4, 12]: 18
Spectral Counts of Peptide KSTGGKAPR (9-17, K14) (SEQ ID NO: 10) [4, 12]: 1
Spectral Counts of Peptide RYQKSTELLIR (53-63, K56) (SEQ ID NO: 21) [4, 12]: 2
Compound: CC(=O)SCCNC(=O)CCNC(=O)[C@H](O)C(C)(C)COP(=O)(O)OP(=O)(O)OC[C@H]1O[C@@H](n2cnc3c(N)ncnc32)[C@H](O)[C@@H]1OP(=O)(O)O [AcCoA, acetyl-CoA, reference compound]

Compound: C[C@@H]1C[C@@H]([C@H](O)CC2CC(=O)NC(=O)C2)C(=O)[C@@H](C)C1 [CHX, cycloheximide, reference compound]
effect on metabolic incorporation of alkynyl-chemical reporters (alk-4, alk-12, alk-16) [5]: did not inhibit the metabolic incorporation
effect on metabolic incorporation of alkynyl-chemical reporters (alk-4, alk-12, alk-16) ([5]; listed as cyclohexamide): still detected
effect of inhibitor on alkynyl-fatty acid protein labeling (alk-12, alk-14, alk-16, 20 μM) [6]: abrogated the metabolic labeling of several prominent polypeptides by alk-12
effect on incorporation of methionine surrogate AHA into proteins ([3]; 100 μM CHX, Jurkat T cells): completely blocked

Compound: CCCCCCCCCCCCC(O)C(=O)O (stereo not drawn) [HMA, 2-hydroxymyristic acid, reference compound]
effect of inhibitor on alkynyl-fatty acid protein labeling (alk-12, alk-14, alk-16, 20 μM) [6]: selectively blocked alk-12 protein labeling compared to alk-14 and alk-16

Compound: C#CCCC(=O)SCCNC(=O)CCNC(=O)[C@H](O)C(C)(C)COP(=O)(O)OP(=O)(O)OC[C@H]1O[C@@H](n2cnc3c(N)ncnc32)[C@H](O)[C@@H]1OP(=O)(O)O [Analog 2]
utilization as acyl-CoA donor for p300-catalyzed acylation of histone H3 peptide [7]: readily utilized by p300
Spectral Counts of Peptide EIAQDFK (73-79) (SEQ ID NO: 7) ([4]; H3 + acyl-CoA + p300): 25
Spectral Counts of Peptide KSAPATGGVK (27-36) (SEQ ID NO: 2) ([4]; H3 + acyl-CoA + p300): 17
Spectral Counts of Peptide SAPATGGVK (28-36) SEQ ID NO: 3 ([4]; H3 + acyl-CoA + p300): 7
Spectral Counts of Peptide VTIMPK (117-122) (SEQ ID NO: 9) ([4]; H3 + acyl-CoA + p300): 4
Spectral Counts of Peptide YRPGTVALR (41-49) (SEQ ID NO: 4) ([4]; H3 + acyl-CoA + p300): 3
Spectral Counts of Peptide EIAQDFK (73-79) (SEQ ID NO: 7) ([4]; H3 + acyl-CoA, without p300): 27
Spectral Counts of Peptide KLPFQR (64-69) (SEQ ID NO: 6) ([4]; H3 + acyl-CoA, without p300): 1
Spectral Counts of Peptide KSAPATGGVK (27-36) (SEQ ID NO: 2) ([4]; H3 + acyl-CoA, without p300): 23
Spectral Counts of Peptide SAPATGGVK (28-36) SEQ ID NO: 3 ([4]; H3 + acyl-CoA, without p300): 9
Spectral Counts of Peptide VTIMPK (117-122) (SEQ ID NO: 9) ([4]; H3 + acyl-CoA, without p300): 5
Spectral Counts of Peptide YRPGTVALR (41-49) (SEQ ID NO: 4) ([4]; H3 + acyl-CoA, without p300): 2
Spectral Counts of Peptide KQLATK (18-23, K18) (SEQ ID NO: 13) [4, 11]: 10
Spectral Counts of Peptide KQLATKAAR (18-26, K18, K23) (SEQ ID NO: 15) [4, 11]: 18
Spectral Counts of Peptide KQLATKAAR (18-26, K23) (SEQ ID NO: 14) [4, 11]: 3
Spectral Counts of Peptide KSAPATGGVK (27-36, K27) (SEQ ID NO: 17) [4, 11]: 25
Spectral Counts of Peptide KSTGGKAPR (9-17, K9, K14) (SEQ ID NO: 11) [4, 11]: 12
Spectral Counts of Peptide KSTGGKAPR (9-17, K14) (SEQ ID NO: 10) [4, 11]: 16
Spectral Counts of Peptide STGGKAPR (10-17, K14) (SEQ ID NO: 12) [4, 11]: 9
Spectral Counts of Peptide KQLATKAAR (18-26, K23) (SEQ ID NO: 14) [4, 12]: 1
Spectral Counts of Peptide KSAPATGGVK (27-36, K27) (SEQ ID NO: 17) [4, 12]: 3
visualization of p300-acylation of histone H3 [8]: serve as sensitive reagents for visualizing p300-acylation of histone H3

absorption (abs) maxima [9]: 470 nm
emission (em) maxima [9]: 580 nm
εmax^b (M^−1cm^−1) ([9]; in MeOH, at 470 nm for az-CyFur-1, az-CyFur-2 and at 580 nm for alk-CyFur, averaged over three independent experiments): 12,100 M^−1cm^−1
ΦF^c ([9]; quantum yield referenced against cresyl violet, alk-CyFur excited at 580 nm, az-CyFur-1 and az-CyFur-2 at 470 nm): 0.0027
λmax^a (nm) (first column) ([9]; spectra obtained in DMSO): 470 nm
λmax^a (nm) (second column) ([9]; spectra obtained in DMSO): 580 nm
Compound: CC1(C)OC(=C(C#N)C#N)C(C#N)=C1/C=C/c1ccc(NC(=O)CCCCCN=[N+]=[N-])cc1 [az-CyFur-2, (E)-6-azido-N-(4-(2-(4-cyano-5-(dicyanomethylene)-2,2-dimethyl-2,5-dihydrofuran-3-yl)vinyl)phenyl)hexanamide]

Compound: [N-]=[N+]=NCC[C@H](N)C(=O)O [AHA, (S)-2-amino-4-azidobutanoic acid]
toxicity of protein synthesis reporter [10]: no observed toxicity

fluorescence emission (FRET) ([9]; excitation at 410 nm): 640 nm
Compound: CC1(C)OC(=C(C#N)C#N)C(C#N)=C1/C=C/c1ccc(NCCc2cn(CCOC(=O)Nc3ccc(/C=C/C4=C(C#N)C(=C(C#N)C#N)OC4(C)C)cc3)nn2)cc1 [fluorophore 3, 2-(4-(2-(4-((E)-2-(4-cyano-5-(dicyanomethylene)-2,2-dimethyl-2,5-dihydrofuran-3-yl)vinyl)phenylamino)ethyl)-1H-1,2,3-triazol-1-yl)ethyl 4-((E)-2-(4-cyano-5-(dicyanomethylene)-2,2-dimethyl-2,5-dihydrofuran-3-yl)vinyl)phenylcarbamate]
